# Experimental data from PubChem BioAssay (Tox21).
# “And” between values parts separate entries of the source, which are not always exact repeats. Identical values can stand only once. This list was built around the results that the source calls inconclusive (neither active nor inactive); the mix of calls is not that of the screen. For some assays here: Where the call is inconclusive, the potency comes from a doubtful curve fit. The source made the active and inactive calls. Unless noted, calls come from the whole dose curve; as a rule, active = well fitted curve in the direction sought with a large enough effect in the repeat runs; inconclusive = weak or mixed curves; inactive = no such curve, though single readings can be large; an effect the other way counts as inactive or inconclusive.
# Key:
# [1] = molecular target: Peroxisome proliferator-activated receptor gamma (Homo sapiens) (UniProt P37231); assay: qHTS assay to identify small molecule antagonists of the peroxisome proliferator-activated receptor gamma (PPARg) signaling pathway (AID 743191; calls by dose curve; note: nearly all actives have a fitted effect of over 30% in size; note: potency is the fitted concentration of half-maximal effect; for ratio activity, negative = inhibition: % is set by controls: 0 for no effect and ±100 for the full control effect); conditions: HEK293H PPARg-UAS-bla, beta-lactamase ratio, antagonist, 17 h
# Procedure, shortened: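 GeneBLAzer PPARg UAS-bla HEK293H cells, 5 h post-plating, exposed to compounds 17 h at 37C. LiveBLAzer B/G FRET substrate added for 1 h at room temperature; beta-lactamase reporter read by fluorescence intensity.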
# [2] = qHTS assay to identify small molecule antagonists of the peroxisome proliferator-activated receptor gamma (PPARg) signaling pathway - cell viability counter screen (AID 743194); conditions: PPARg-bla HEK293H viability, CellTiter-Glo luminescence, 17 h; Potency: co-treated with 50 nM rosiglitazone unless noted; activity change, negative = cytotoxicity: at 62.6 µM (top of the series), co-treated with 50 nM rosiglitazone unless noted; note: nearly all actives have a fitted effect of over 55% in size; note: potency is the fitted concentration of half-maximal effect
# Procedure, shortened: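 Cytotoxicity counter screen in PPARg-bla HEK293H cells, same wells as reporter assay. Compounds plus 50 nM rosiglitazone (final) for 17 h at 37 C, then viability read by CellTiter-Glo luminescence.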
# [3] = qHTS assay for small molecule agonists of the antioxidant response element (ARE) signaling pathway (AID 743202; active = well fitted activation curve with a large enough effect in the signal ratio in the repeat runs, not every such curve was filed as active; inconclusive = weak or mixed curves, or effect the other way; inactive = no such curve, though single readings can be large or run the other way; the % refers to the signal ratio; note: potency is the fitted concentration of half-maximal effect); conditions: HepG2 ARE-bla reporter, beta-lactamase FRET, 16 h; activation: at 73.3 µM (top of the series) unless noted
# Procedure, shortened: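 HepG2 ARE-bla reporter line, 2,000 cells/well; 5 h preincubation 37 C/5% CO2; compound (DMSO) 16 h 37 C; B/G FRET substrate 2 h RT; fluorescence intensity.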
# [4] = qHTS assay for small molecule activators of the heat shock response signaling pathway (AID 743210; active = well fitted activation curve with a large enough effect in the signal ratio in the repeat runs, with a control signal flat, not every such curve was filed as active; inconclusive = weak or mixed curves; the % refers to the signal ratio; note: potency is the fitted concentration of half-maximal effect); conditions: HeLa HSE-bla reporter, beta-lactamase ratio, 5 h; activation: at 62.6 µM (top of the series)
# Procedure, shortened: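 Beta-lactamase reporter read-out: FRET substrate fluorescence after 2.5 h at RT, following 5 h compound treatment at 37 C of HeLa cells carrying HSE-driven bla reporter; quantitative HTS format.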
# [5] = qHTS assay to identify small molecule agonists of the peroxisome proliferator-activated receptor delta (PPARd) signaling pathway - cell viability counter screen (AID 743211); conditions: PPARd-bla HEK293H viability, CellTiter-Glo luminescence, 17 h; activity change, negative = cytotoxicity: at 62.6 µM (top of the series) unless noted; note: potency is the fitted concentration of half-maximal effect; nearly all actives have a fitted effect of over 55% in size
# Procedure, shortened: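 qHTS cell viability: PPARd-bla HEK293H; 17 h cpd, 37C; CellTiter-Glo, luminescence at 30 min RT.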
# [6] = qHTS assay to identify small molecule antagonists of the peroxisome proliferator-activated receptor delta (PPARd) signaling pathway - cell viability counter screen (AID 743213); conditions: PPARd-bla HEK293H viability, CellTiter-Glo luminescence, 17 h; viability change, negative = cytotoxic: at 62 µM (top of the series) unless noted; note: potency is the fitted concentration of half-maximal effect; nearly all actives have a fitted effect of over 50% in size
# Procedure, shortened: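 PPARd-bla HEK293H cells (3000/well) got compound plus 300 nM L165041 agonist for 17 h at 37 C. Viability in the same wells came from CellTiter-Glo luminescence after 30 min at room temperature.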
# [7] = qHTS assay to identify small molecule agonists of the farnesoid-X-receptor (FXR) signaling pathway - cell viability counter screen (AID 743218); conditions: FXR-bla HEK293T viability, CellTiter-Glo luminescence, 16 h; viability change, negative = cytotoxic: at 62.6 µM (top of the series) unless noted; note: potency is the fitted concentration of half-maximal effect; nearly all actives have a fitted effect of over 45% in size
# Procedure, shortened: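 Same-well cytotoxicity check on FXR-UAS-bla HEK 293T cells: 5 h attachment, 16 h compound at 37 C, CellTiter-Glo luminescence read at room temperature after 30 min.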
# [8] = qHTS assay to identify small molecule antagonists of the farnesoid-X-receptor (FXR) signaling pathway - cell viability counter screen (AID 743221; active = well fitted cell-killing curve with a large enough effect in the repeat runs, not every such curve was filed as active; inconclusive = weak or mixed curves, or effect the other way; inactive = no such curve, though single readings can be large or run the other way; note: potency is the fitted concentration of half-maximal effect; nearly all actives have a fitted effect of over 50% in size); conditions: FXR-bla HEK293T viability, CellTiter-Glo luminescence, 16 h; activity change, negative = cytotoxicity: at 62.6 µM (top of the series) unless noted
# Procedure, shortened: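 After a 5 h settling period, FXR-bla HEK 293T cells receive compound and chenodeoxycholic acid (50 uM final) and incubate 16 h at 37 C; CellTiter-Glo luminescence, read after 30 min at room temperature, reports cell viability.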
# [9] = molecular target: Vitamin D3 receptor (Homo sapiens) (UniProt P11473); assay: qHTS assay to identify small molecule antagonists of the vitamin D receptor (VDR) signaling pathway (AID 743223; active = well fitted inhibition curve with a large enough effect in the signal ratio in the repeat runs, not every such curve was filed as active; inconclusive = weak or mixed curves, or effect the other way; inactive = no such curve, though single readings can be large or run the other way; the % refers to the signal ratio; note: potency is the fitted concentration of half-maximal effect); conditions: VDR-UAS-bla HEK293T, beta-lactamase FRET ratio, 16 h
# Procedure, shortened: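 Reporter line VDR-bla; stimulus 1alpha,25-(OH)2 vitamin D3, 3 nM final; compound co-addition, 16 h 37C/5% CO2; LiveBLAzer B/G substrate 2 h RT; fluorescence intensity.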
# [10] = qHTS assay to identify small molecule agonists of the vitamin D receptor (VDR) signaling pathway - cell viability counter screen (AID 743224); note: potency is the fitted concentration of half-maximal effect; nearly all actives have a fitted effect of over 50% in size
# Procedure, shortened: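 Counter screen for cytotoxicity: VDR-bla cells at 2,000 cells/well, 16 h compound exposure, then CellTiter-Glo luminescence after the beta-lactamase measurement.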
# [11] = qHTS assay to identify small molecule antagonists of the vitamin D receptor (VDR) signaling pathway - cell viability counter screen (AID 743225); conditions: VDR-bla HEK293T viability, CellTiter-Glo luminescence, 16 h; viability change, negative = cytotoxic: at 61 µM (top of the series) unless noted; note: potency is the fitted concentration of half-maximal effect; nearly all actives have a fitted effect of over 50% in size
# Procedure, shortened: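 Parallel cytotoxicity test: VDR-UAS-bla HEK 293T, 3 nM (final) 1-alpha,25-dihydroxyvitamin D3 with test compound, 16 h, 37C. Endpoint is CellTiter-Glo luminescence in the same wells.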
# [12] = qHTS assay to identify small molecule agonists of the endoplasmic reticulum stress response signaling pathway (AID 1159516; active = well fitted activation curve with a large enough effect in the signal ratio in the repeat runs, not every such curve was filed as active; inconclusive = weak or mixed curves, or effect the other way; the % refers to the signal ratio; note: potency is the fitted concentration of half-maximal effect; for activation: % is set by controls: 0 for no effect and ±100 for the full control effect); conditions: ESRE-bla HeLa, ER stress beta-lactamase reporter, 5 h; activation: at 61 µM (top of the series) unless noted
# Procedure, shortened: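 For this screen, HeLa cells stably carrying beta-lactamase under the ER stress response element received test compounds, positive controls or DMSO for 5 hr at 37 C; B/G FRET substrate was then added and dual-wavelength emission recorded.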
# [13] = molecular target: Peroxisome proliferator-activated receptor delta (Homo sapiens) (UniProt Q03181); assay: qHTS assay to identify small molecule agonists of the peroxisome proliferator-activated receptor delta (PPARd) signaling pathway (AID 743212; calls by dose curve; note: potency is the fitted concentration of half-maximal effect; for activation: % is set by controls: 0 for no effect and ±100 for the full control effect); conditions: HEK293H PPARd-UAS-bla, beta-lactamase FRET ratio, 17 h; activation: at 62.6 µM (top of the series) unless noted
# Procedure, shortened: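 Read-out: beta-lactamase FRET fluorescence after 2 h room-temperature incubation with LiveBLAzer B/G substrate. Cells were HEK293H carrying a UAS-bla reporter for PPARd, treated at 37 C with DMSO-dissolved compounds.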
# [14] = molecular target: Peroxisome proliferator-activated receptor delta (Homo sapiens) (UniProt Q03181); assay: qHTS assay to identify small molecule antagonists of the peroxisome proliferator-activated receptor delta (PPARd) signaling pathway (AID 743215; active = well fitted inhibition curve with a large enough effect in the signal ratio in the repeat runs, not every such curve was filed as active; inconclusive = weak or mixed curves, or effect the other way; inactive = no such curve, though single readings can be large or run the other way; the % refers to the signal ratio;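 note: cells stimulated with agonist L165041 at 300 nM final during compound exposure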; note: potency is the fitted concentration of half-maximal effect); conditions: HEK293H PPARd-UAS-bla, beta-lactamase FRET ratio, antagonist, 17 h; ratio activity, negative = inhibition: at 62 µM (top of the series) unless noted
# Procedure, shortened: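 Screen format: qHTS, antagonist mode. HEK293H PPARd-bla cells received compound and 300 nM L165041 (final), 17 h, 37 C. Beta-lactamase detected via FRET substrate fluorescence, 2 h, room temperature.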
# [15] = qHTS assay for small molecule activators of the heat shock response signaling pathway - cell viability counter screen (AID 743209); conditions: HSE-bla HeLa viability, CellTiter-Glo luminescence, 5 h; activity change, negative = cytotoxicity: at 62.6 µM (top of the series) unless noted; note: nearly all actives have a fitted effect of over 50% in size; note: potency is the fitted concentration of half-maximal effect
# Procedure, shortened: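 To flag cytotoxic compounds, HSE-bla HeLa cells plated at 1500 cells/well were dosed for 5 h at 37 C, followed by the reporter FRET read and then CellTiter-Glo, with luminescence recorded 30 min after reagent addition.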
# [16] = molecular target: Bile acid receptor (Homo sapiens) (UniProt Q96RI1); assay: qHTS assay to identify small molecule antagonists of the farnesoid-X-receptor (FXR) signaling pathway (AID 743217; active = well fitted inhibition curve with a large enough effect in the signal ratio in the repeat runs, not every such curve was filed as active; inconclusive = weak or mixed curves, or effect the other way; inactive = no such curve, though single readings can be large or run the other way; the % refers to the signal ratio; note: % is set by controls: 0 for no effect and ±100 for the full control effect); conditions: HEK293T FXR-UAS-bla, beta-lactamase ratio, CDCA-stimulated, 16 h; activity change, negative = inhibition: at 62.6 µM (top of the series) unless noted
# Procedure, shortened: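 Quantitative HTS, beta-lactamase reporter format: FXR-UAS-bla HEK 293T cells co-treated 16 h at 37 °C with compounds and 50 uM final chenodeoxycholic acid, then read by B/G FRET fluorescence.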
# [17] = molecular target: Vitamin D3 receptor (Homo sapiens) (UniProt P11473); assay: qHTS assay to identify small molecule agonists of the vitamin D receptor (VDR) signaling pathway (AID 743222; calls by dose curve; note: potency is the fitted concentration of half-maximal effect); conditions: HEK293T VDR-UAS-bla, beta-lactamase FRET ratio, 16 h; activation: at 63.5 µM (top of the series) unless noted
# Procedure, shortened: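 Using LiveBLAzer B/G FRET detection, agonism was scored in VDR-bla cells exposed overnight (16 h, 37C) to DMSO-dissolved compounds; substrate incubation was 2 h at room temperature.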
# [18] = qHTS assay for small molecule agonists of the antioxidant response element (ARE) signaling pathway - cell viability counter screen (AID 743203; calls by dose curve; note: nearly all actives have a fitted effect of over 55% in size; note: potency is the fitted concentration of half-maximal effect)
# Procedure, shortened: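 Parallel cytotoxicity read-out for the ARE-bla screen: HepG2 reporter cells, 16 hrs with compounds, then CellTiter-Glo luminescence.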
# [19] = ratio activity, negative = inhibition: at 62.6 µM (top of the series) unless noted
# [20] = activity change, negative = inhibition: at 61 µM (top of the series) unless noted
# Tags give direction and shape of the fitted curve or compound fluorescence and quenching.
# Sequence of UniProt P37231 (P37231 whole entry, looked up): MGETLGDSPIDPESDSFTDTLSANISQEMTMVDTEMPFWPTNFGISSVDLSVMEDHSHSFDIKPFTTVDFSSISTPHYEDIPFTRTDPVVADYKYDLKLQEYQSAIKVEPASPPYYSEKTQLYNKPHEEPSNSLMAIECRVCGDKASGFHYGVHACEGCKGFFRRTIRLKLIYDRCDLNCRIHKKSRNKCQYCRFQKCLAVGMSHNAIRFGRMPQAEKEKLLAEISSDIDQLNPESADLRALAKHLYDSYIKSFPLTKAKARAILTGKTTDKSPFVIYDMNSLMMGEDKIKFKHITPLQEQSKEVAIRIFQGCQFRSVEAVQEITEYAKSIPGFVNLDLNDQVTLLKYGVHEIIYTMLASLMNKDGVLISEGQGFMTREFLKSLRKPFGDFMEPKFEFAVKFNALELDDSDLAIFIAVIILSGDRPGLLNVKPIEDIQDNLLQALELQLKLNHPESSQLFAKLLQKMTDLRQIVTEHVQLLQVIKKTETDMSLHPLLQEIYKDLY
# Sequence of UniProt P11473 (P11473 whole entry, looked up): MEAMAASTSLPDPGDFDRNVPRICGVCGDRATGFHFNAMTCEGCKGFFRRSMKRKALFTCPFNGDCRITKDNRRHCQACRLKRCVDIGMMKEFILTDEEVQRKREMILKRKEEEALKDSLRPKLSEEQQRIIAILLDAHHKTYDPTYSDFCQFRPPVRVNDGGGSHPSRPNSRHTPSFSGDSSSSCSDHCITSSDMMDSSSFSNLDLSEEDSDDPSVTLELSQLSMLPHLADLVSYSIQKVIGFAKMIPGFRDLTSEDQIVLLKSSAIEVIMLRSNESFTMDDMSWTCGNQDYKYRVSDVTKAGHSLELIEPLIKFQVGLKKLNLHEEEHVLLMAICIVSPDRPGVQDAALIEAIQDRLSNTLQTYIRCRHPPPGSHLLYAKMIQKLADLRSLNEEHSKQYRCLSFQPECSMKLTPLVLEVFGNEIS
# Sequence of UniProt Q03181 (Q03181 whole entry, looked up): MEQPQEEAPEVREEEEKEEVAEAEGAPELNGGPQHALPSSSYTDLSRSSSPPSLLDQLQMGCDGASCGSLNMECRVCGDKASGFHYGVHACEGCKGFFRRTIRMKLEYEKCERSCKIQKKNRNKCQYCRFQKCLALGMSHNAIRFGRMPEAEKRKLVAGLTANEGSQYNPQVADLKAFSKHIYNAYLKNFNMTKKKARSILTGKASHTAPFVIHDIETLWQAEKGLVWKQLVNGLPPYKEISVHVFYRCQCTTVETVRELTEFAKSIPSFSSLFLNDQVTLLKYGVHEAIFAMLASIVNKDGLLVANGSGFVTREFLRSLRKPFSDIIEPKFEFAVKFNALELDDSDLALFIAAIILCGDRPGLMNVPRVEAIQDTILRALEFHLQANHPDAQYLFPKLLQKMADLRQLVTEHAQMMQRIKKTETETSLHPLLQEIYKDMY
# Sequence of UniProt Q96RI1 (Q96RI1 whole entry, looked up): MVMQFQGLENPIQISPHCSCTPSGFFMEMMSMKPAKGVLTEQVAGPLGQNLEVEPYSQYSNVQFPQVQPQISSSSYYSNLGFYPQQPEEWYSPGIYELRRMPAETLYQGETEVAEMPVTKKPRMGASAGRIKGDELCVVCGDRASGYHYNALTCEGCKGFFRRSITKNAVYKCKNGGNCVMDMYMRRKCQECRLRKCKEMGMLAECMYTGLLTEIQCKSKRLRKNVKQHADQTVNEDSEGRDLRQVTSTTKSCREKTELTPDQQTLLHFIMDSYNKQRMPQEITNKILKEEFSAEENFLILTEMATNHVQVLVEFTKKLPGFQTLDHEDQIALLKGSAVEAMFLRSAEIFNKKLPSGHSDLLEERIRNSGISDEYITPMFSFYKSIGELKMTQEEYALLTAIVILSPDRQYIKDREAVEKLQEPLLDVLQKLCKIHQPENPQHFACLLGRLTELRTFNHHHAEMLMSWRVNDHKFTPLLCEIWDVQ
structure (smiles),measurement,setting,value
CCCCN(CCCC)C(=S)[S-].CCCCN(CCCC)C(=S)[S-].[Zn+2],Potency,[1]; [19],"inconclusive: 6.16 µM [rising, partial curve]"
same,Potency,[2],active: 5.49 µM
same,Potency,[3],inconclusive: 24.3 µM
same,Potency,[4],inconclusive: 19.5 µM
same,Potency,[5],active: 6.16 µM
same,Potency,[6],active: 12.3 µM
same,Potency,[7],active: 8.7 µM
same,Potency,[8],active: 13.8 µM
same,Potency,[9]; [20],inconclusive: 11 µM [full curve]
same,Potency,[10],active: 5.49 µM
same,Potency,[11],active: 11 µM
same,activation,[12],inconclusive: 8.18%
O=S(=O)(c1ccc(Cl)cc1)c1ccc(Cl)cc1,Potency,[1]; [19],"inconclusive: 55.6 µM [rising, partial curve, poor fit]"
same,Potency,[2],"inconclusive: 27.9 µM [cytotoxic, partial curve, poor fit]"
same,Potency,[3],inconclusive: 55.1 µM
same,Potency,[4],"inconclusive: 0.098 µM [falling, full curve]"
same,Potency,[5],"inconclusive: 13.8 µM [cytotoxic, single point]"
same,activation,[13],inconclusive: 5.15% [at 81.1 µM]
same,Potency,[6],"inconclusive: 0.394 µM [cytotoxic, full curve, poor fit]"
same,Potency,[14],"inconclusive: 9.89 µM [fluorescent, full curve, poor fit]"
same,Potency,[7],"inconclusive: 4.96 µM [rising, full curve, poor fit]"
same,Potency,[9]; [20],"inconclusive: 3.89 µM [activator, full curve, poor fit]"
same,Potency,[10],"inconclusive: 9.89 µM [cytotoxic, full curve]"
same,Potency,[12],"inconclusive: 1.4 µM [fluorescent, partial curve, poor fit]"
CCCCc1ccccc1,"ratio activity, negative = inhibition",[1]; [19],inconclusive: 7.95%
same,Potency,[2],"inconclusive: 4.9 µM [rising, partial curve, poor fit]"
same,activation,[3],inconclusive: -11.8%
same,Potency,[15],inactive
same,Potency,[14],inactive
same,"activity change, negative = inhibition",[16],inconclusive: 0.391%
same,Potency,[17],"inconclusive: 54.9 µM [activator, single point]"
same,Potency,[12],"inconclusive: 0.0219 µM [falling, full curve, poor fit]"
c1cncc([C@@H]2CCCCN2)c1,Potency,[1]; [19],inactive
same,Potency,[2],"inconclusive: 0.195 µM [rising, single point]"
same,Potency,[12],inactive
CCCN(CCOc1c(Cl)cc(Cl)cc1Cl)C(=O)n1ccnc1,Potency,[1]; [19],"inconclusive: 54.9 µM [inhibitor, single point]"
same,Potency,[2],"inconclusive: 2.19 µM [cytotoxic, full curve]"
same,Potency,[3],"inconclusive: 34.4 µM [falling, partial curve, poor fit]"
same,activation,[3],inconclusive: -24.4% [at 94.8 µM]
same,Potency,[18],"inconclusive: 70.1 µM [cytotoxic, single point] and inconclusive: 68.6 µM [cytotoxic, single point]"
same,Potency,[5],"inconclusive: 56.1 µM [cytotoxic, single point]"
same,Potency,[13],"inconclusive: 50 µM [partial curve, poor fit]"
same,Potency,[6],inconclusive: 63 µM [cytotoxic]
same,"activity change, negative = inhibition",[16],inconclusive: -32.6% [at 81.1 µM]
same,Potency,[7],"inconclusive: 2.23 µM [rising, full curve, poor fit]"
same,Potency,[10],"inconclusive: 56.1 µM [cytotoxic, single point]"
same,Potency,[12],inconclusive: 63 µM [activator] and inconclusive: 61.6 µM [activator]
Clc1ccccc1-c1nnc(-c2ccccc2Cl)nn1,"ratio activity, negative = inhibition",[1]; at 62.6 µM (top of the series),inactive: -3.42%
same,"ratio activity, negative = inhibition",[1]; [19],inconclusive: -5.88%
same,activation,[3],inconclusive: -10.3%
same,activation,[13],inconclusive: -7.2%
same,Potency,[6],"inconclusive: 5.48 µM [cytotoxic, single point]"
same,Potency,[17],inactive
same,"activity change, negative = inhibition",[9]; [20],inconclusive: -18%
same,"activity change, negative = inhibition",[9]; at 61 µM (top of the series),inactive: -2.29%
same,Potency,[11],"inconclusive: 0.435 µM [cytotoxic, single point]"
same,Potency,[12],"inconclusive: 0.273 µM [rising, full curve, poor fit]"
CCOP(=O)(OCC)Oc1cc(C)nc(C(C)C)n1,"ratio activity, negative = inhibition",[1]; [19],inconclusive: -19.6% [at 81.1 µM]
same,Potency,[2],inactive
same,Potency,[3],inconclusive: 24.5 µM
same,Potency,[18],inactive
same,Potency,[15],inactive
same,Potency,[4],inconclusive: 12.4 µM
same,Potency,[12],"inconclusive: 3.49 µM [falling, partial curve, poor fit]"
Nc1ccccc1C(=O)OC/C=C/c1ccccc1,Potency,[1]; [19],"inconclusive: 55.1 µM [inhibitor, single point]"
same,Potency,[2],"inconclusive: 61.8 µM [cytotoxic, partial curve, poor fit] [setting not given]"
same,Potency,[3],"inconclusive: 43.4 µM [falling, partial curve, poor fit]"
same,Potency,[15],active: 34.8 µM
same,Potency,[4],inconclusive: 43.8 µM [partial curve]
same,Potency,[7],"inconclusive: 61.8 µM [cytotoxic, single point]"
same,Potency,[17],"inconclusive: 43.8 µM [partial curve, poor fit]"
same,Potency,[9]; [20],"inconclusive: 49.1 µM [rising, single point]"
same,Potency,[11],active: 49.1 µM
same,Potency,[12],"inconclusive: 43.8 µM [cytotoxic, partial curve, poor fit]"
